Measurements from the supplement of paper PMC11125491.
± gives the standard deviation of the averaged measurements. Growth of baker's yeast expressing single-residue variants of Pneumocystis jirovecii dihydrofolate reductase in 8.8 or 44 µM methotrexate (about 75% and 90% inhibition of the wild type). Selection coefficient per generation; 0 = like wild type, above 0 = less sensitive, below 0 = more sensitive or loss of function. No active / inactive call per row; the paper calls resistant above 0.220 (8.8 µM) or 0.243 (44 µM) together with a significance test. At 44 µM about 15% of codons end with one read or none, so the lowest values are floors (replicate rank correlation 0.74; 0.94 at 8.8 µM).

B1: UniProt A0EPZ9; numbered along this chain (parent)
chain: MDWQKSLTLIVALTLSRGIGLKNDLPWKLKSDMMFFSRVTSGLLVTRSTGQMNVVLMGRKTWESLPAHSRPLKNRINVVISRQEVLDLGGGAYHARSLDDALALLSQIYDSTSKIQLNRVFVIGGGELCKAAMEHSRLNRIIATVIHNEVDCDVFFPIDFRSSQSCLPWRKQDHSVLEAWVGSKVPQGKINENGFIYEFEMWIRDI

Variants of: B1
Test: selection coefficient against synonymous wild-type codons (log2 per generation); higher = faster growth than wild type
Conditions: with Saccharomyces cerevisiae carrying the variant on a plasmid
Experimental: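 Pooled growth of yeast carrying single-residue variants of P. jirovecii dihydrofolate reductase (own DFR1 gene intact), two passages at 30 °C, three cultures, sequenced before and after. Codons with under 15 starting reads are left out; codons of one change are averaged.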

Row | Variant | selection coefficient against synonymous wild-type codons (log2) (methotrexate 8.8 µM) | selection coefficient against synonymous wild-type codons (log2) (methotrexate 44 µM)
1 | Q116C | -0.149 ± 0.076 | -0.0554 ± 0.12
2 | A101S | -0.545 ± 0.13 | -0.212 ± 0.17
3 | A101C | -0.662 ± 0.058 | -0.332 ± 0.052
4 | G91P | -0.409 ± 0.095 | -0.176 ± 0.096
5 | G91L | 0.0798 ± 0.023 | 0.144 ± 0.08
6 | L105K | -0.759 ± 0.018 | -0.187 ± 0.11
7 | L105C | -0.226 ± 0.061 | -0.257 ± 0.039
8 | M52K | -0.101 ± 0.064 | -0.0738 ± 0.098
9 | D153N | 0.0713 ± 0.051 | 0.0378 ± 0.035
10 | N193F | -0.148 ± 0.028 | 0.0167 ± 0.017
11 | H147Q | -0.0512 ± 0.062 | -0.119 ± 0.11
12 | H147D | -0.0272 ± 0.048 | -0.136 ± 0.13
13 | K22C | 0.0165 ± 0.016 | -0.00397 ± 0.061
14 | V45T | 0.145 ± 0.061 | 0.0329 ± 0.14
15 | V45Q | 0.157 ± 0.025 | 0.097 ± 0.035
16 | V45D | 0.305 ± 0.021 | 0.231 ± 0.031
17 | L117F | -0.00194 ± 0.037 | 0.0779 ± 0.14
18 | L117R | -0.35 ± 0.093 | -0.232 ± 0.11
19 | Q83A | -0.177 ± 0.022 | -0.142 ± 0.11
20 | Q83P | -0.551 ± 0.058 | -0.156 ± 0.15
21 | S69P | -0.126 ± 0.067 | -0.118 ± 0.1
22 | S69T | 0.0223 ± 0.067 | -0.00104 ± 0.098
23 | S69W | 0.378 ± 0.011 | 0.4359 ± 0.0018
24 | M33I | 0.137 ± 0.04 | 0.324 ± 0.017

Row | Variant | selection coefficient against synonymous wild-type codons (log2) (methotrexate 8.8 µM) | selection coefficient against synonymous wild-type codons (log2) (methotrexate 44 µM)
25 | M33D | 0.672 ± 0.046 | 0.7915 ± 0.0068
26 | M33F | 0.313 ± 0.011 | 0.365 ± 0.0094
27 | H174A | -0.0737 ± 0.07 | -0.126 ± 0.22
28 | S111T | -0.0714 ± 0.048 | -0.135 ± 0.095
29 | S111Q | -0.127 ± 0.13 | 0.0972 ± 0.17
30 | S111G | -0.0328 ± 0.019 | 0.0352 ± 0.011
31 | L138S | 0.172 ± 0.034 | 0.212 ± 0.072
32 | L138G | 0.223 ± 0.033 | 0.325 ± 0.051
33 | L138E | -0.105 ± 0.053 | -0.0919 ± 0.073
34 | G90K | -0.0476 ± 0.043 | -0.145 ± 0.12
35 | G90R | -0.177 ± 0.097 | -0.114 ± 0.14
36 | G90Q | -0.0268 ± 0.024 | -0.0101 ± 0.045
37 | T8Q | -0.179 ± 0.048 | -0.214 ± 0.24
38 | T8Y | -0.398 ± 0.15 | -0.269 ± 0.13
39 | T8M | -0.553 ± 0.076 | -0.129 ± 0.043
40 | V85C | 0.0841 ± 0.021 | 0.136 ± 0.042
41 | L88R | -0.581 ± 0.12 | -0.172 ± 0.076
42 | L177V | 0.112 ± 0.038 | -0.0201 ± 0.12
43 | V54Q | -0.511 ± 0.12 | -0.305 ± 0.073
44 | I108G | -0.594 ± 0.071 | -0.389 ± 0.036
45 | I108D | -0.617 ± 0.17 | -0.184 ± 0.023
46 | I108F | -0.129 ± 0.038 | -0.0376 ± 0.1
47 | D99Y | -0.566 ± 0.16 | -0.193 ± 0.035
48 | K114G | 0.0553 ± 0.033 | 0.121 ± 0.014

Row | Variant | selection coefficient against synonymous wild-type codons (log2) (methotrexate 8.8 µM) | selection coefficient against synonymous wild-type codons (log2) (methotrexate 44 µM)
49 | K114R | -0.138 ± 0.04 | -0.0393 ± 0.18
50 | V150F | -0.107 ± 0.039 | -0.151 ± 0.12
51 | D87R | -0.348 ± 0.088 | -0.214 ± 0.085
52 | E200V | 0.298 ± 0.041 | 0.295 ± 0.036
53 | L13M | 0.118 ± 0.043 | 0.0549 ± 0.046
54 | L13V | 0.278 ± 0.021 | 0.268 ± 0.045
55 | L13W | 0.579 ± 0.024 | 0.635 ± 0.035
56 | L13Y | 0.291 ± 0.021 | 0.321 ± 0.09
57 | S6F | -0.413 ± 0.073 | -0.099 ± 0.098
58 | S6M | 0.423 ± 0.018 | 0.31 ± 0.054
59 | C152R | 0.332 ± 0.062 | 0.392 ± 0.057
60 | C152H | 0.254 ± 0.045 | 0.23 ± 0.018
61 | W3E | 0.352 ± 0.024 | 0.388 ± 0.036
62 | E63C | -0.493 ± 0.17 | -0.288 ± 0.067
63 | E63Q | -0.307 ± 0.033 | -0.242 ± 0.14
64 | I141Y | -0.596 ± 0.025 | -0.0938 ± 0.052
65 | I141E | -0.811 ± 0.05 | -0.281 ± 0.17
66 | A12Y | -0.392 ± 0.063 | -0.101 ± 0.055
67 | Y109C | 0.11 ± 0.029 | 0.0862 ± 0.035
68 | N23E | 0.223 ± 0.017 | 0.199 ± 0.081
69 | R170A | 0.00134 ± 0.069 | -0.0736 ± 0.15
70 | I19A | 0.761 ± 0.054 | 0.911 ± 0.042
71 | I19H | 0.891 ± 0.068 | 1.16 ± 0.051
72 | I19P | -0.336 ± 0.14 | -0.0708 ± 0.07

Row | Variant | selection coefficient against synonymous wild-type codons (log2) (methotrexate 8.8 µM) | selection coefficient against synonymous wild-type codons (log2) (methotrexate 44 µM)
73 | F36W | 0.105 ± 0.036 | 0.157 ± 0.038
74 | F36C | 0.163 ± 0.039 | 0.27 ± 0.046
75 | F36R | -0.296 ± 0.092 | -0.0423 ± 0.13
76 | R47C | -0.0851 ± 0.025 | -0.0665 ± 0.079
77 | E127F | -0.267 ± 0.023 | -0.132 ± 0.054
78 | E127T | -0.00672 ± 0.018 | 0.0929 ± 0.12
79 | L56C | -0.297 ± 0.052 | -0.196 ± 0.1
80 | L56M | -0.00461 ± 0.021 | -0.0528 ± 0.039
81 | P168I | -0.359 ± 0.09 | -0.181 ± 0.054
82 | S162L | -0.0135 ± 0.063 | -0.0564 ± 0.11
83 | G58Y | -0.197 ± 0.16 | -0.185 ± 0.19
84 | G58I | -0.61 ± 0.043 | -0.321 ± 0.085
85 | L44I | -0.153 ± 0.097 | -0.0649 ± 0.07
86 | I76W | -0.734 ± 0.032 | -0.23 ± 0.044
87 | R82E | 0.137 ± 0.028 | 0.246 ± 0.21
88 | F199R | 1.11 ± 0.072 | 1.63 ± 0.057
89 | F199S | 0.683 ± 0.029 | 0.878 ± 0.049
90 | F199N | 0.536 ± 0.068 | 0.689 ± 0.063
91 | F156G | 0.513 ± 0.04 | 0.619 ± 0.042
92 | F156A | 0.316 ± 0.044 | 0.306 ± 0.03
93 | W180N | 0.102 ± 0.061 | -0.0348 ± 0.17
94 | V185Y | -0.222 ± 0.057 | -0.143 ± 0.19
95 | V185P | -0.143 ± 0.093 | -0.241 ± 0.093
96 | V185Q | -0.209 ± 0.063 | -0.229 ± 0.026

Row | Variant | selection coefficient against synonymous wild-type codons (log2) (methotrexate 8.8 µM) | selection coefficient against synonymous wild-type codons (log2) (methotrexate 44 µM)
97 | V185E | -0.249 ± 0.018 | -0.319 ± 0.079
98 | V122M | -0.272 ± 0.092 | -0.0738 ± 0.11
99 | K5P | 0.232 ± 0.075 | 0.306 ± 0.19
100 | K5D | 0.374 ± 0.028 | 0.371 ± 0.06
101 | K5W | -0.401 ± 0.087 | -0.269 ± 0.13
102 | E192C | 0.0413 ± 0.038 | 0.0149 ± 0.053
103 | E192M | -0.00406 ± 0.064 | -0.0539 ± 0.14
104 | S97P | -0.541 ± 0.12 | -0.174 ± 0.12
105 | S97N | -0.253 ± 0.06 | -0.189 ± 0.11
106 | S97F | -0.61 ± 0.16 | -0.264 ± 0.057
107 | R70N | -0.303 ± 0.073 | -0.0982 ± 0.095
108 | K30S | 0.0146 ± 0.071 | 0.0132 ± 0.11
109 | K30R | -0.12 ± 0.082 | -0.113 ± 0.13
110 | K30G | 0.0483 ± 0.062 | 0.0613 ± 0.053
111 | N191L | -0.117 ± 0.14 | 0.124 ± 0.41
112 | N191H | -0.0624 ± 0.18 | -0.0246 ± 0.2
113 | V176Y | -0.114 ± 0.043 | -0.178 ± 0.041
114 | V176M | -0.0616 ± 0.0044 | -0.043 ± 0.049
115 | V176D | 0.117 ± 0.029 | 0.107 ± 0.055
116 | V79D | -0.534 ± 0.071 | -0.119 ± 0.059
